# Assay results taken from the supplement of paper PMC3724861.
# This is one part of the list.
# Test system: T1, Caupolican (Caup) homeodomain DNA-binding domain
# T1 sequence: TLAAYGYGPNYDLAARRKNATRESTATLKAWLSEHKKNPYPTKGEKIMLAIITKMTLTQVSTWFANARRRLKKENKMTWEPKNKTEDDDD
# Test: PBM E-score (8-mer, recovered from the published 9-mer minima) (E-score (dimensionless, -0.5 to 0.5)); Drosophila protein; higher = stronger relative binding preference, active = 0.31 or more
# How it was run: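 An enrichment score, with higher meaning stronger, expresses relative binding preference for each short DNA word. The protein used was Caup's homeodomain DNA-binding domain (residues 214-303), produced by in vitro transcription and translation and tested at 100 nM on custom-designed protein binding microarrays. The 8-mer values were recovered from published 9-mer scores, each equal to the lower of its two constituent 8-mer scores.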
row,Sequence,PBM E-score
1,CCGCCCGG,inactive: -0.283
2,CATCTATA,inactive: 0.0985
3,AATTATGC,inactive: 0.0678
4,GCCTCAGC,inactive: -0.198
5,AACGGTAC,inactive: 0.116
6,AGCCAGCA,inactive: -0.136
7,TGAGTCAA,inactive: 0.0775
8,CTACTTTA,inactive: 0.0405
9,CTCGTGTC,inactive: 0.26
10,GCATTCGC,inactive: -0.112
11,AATGATCA,inactive: 0.0957
12,ACGCCCTC,inactive: -0.116
13,ATCGGGGG,inactive: -0.264
14,CGAAGGTC,inactive: -0.156
15,ATTGGCTC,inactive: -0.0325
16,CGTTGCGC,inactive: -0.201
17,GACAAAAA,inactive: 0.0647
18,GAATACAA,inactive: 0.299
19,GCGAAAGA,inactive: -0.063
20,AGCGAAAT,inactive: -0.0402
21,CATTCCCG,inactive: -0.0527
22,ATTCACTC,inactive: 0.0438
23,AAAACCAA,inactive: 0.0331
24,ACTGTTCT,inactive: 0.125
25,CCTACGTC,inactive: -0.0962

row,Sequence,PBM E-score
1,ATGAATTA,inactive: 0.0989
2,ATCAGTCG,≥ 0.114
3,CATTAACC,inactive: 0.115
4,AAAGGCCG,inactive: -0.194
5,GTGTCAAA,inactive: 0.294
6,ACGAGACA,inactive: 0.155
7,ATCTATGG,inactive: -0.111
8,AATGGGTG,inactive: -0.014
9,ATACTTGG,inactive: -0.0236
10,GGGGAGTA,inactive: -0.163
11,GTATACAA,active: 0.318
12,GCGCATCC,inactive: -0.151
13,AAGAGAGA,inactive: -0.0648
14,GCCGGTAC,inactive: 0.0223
15,ATTTCAAG,inactive: 0.138
16,GGCAGTAC,inactive: 0.0248
17,CCATTGGG,inactive: -0.154
18,GTACGGGA,inactive: -0.00659
19,AATCTCAC,inactive: 0.0114
20,ACATGTCC,active: 0.438
21,CAGTACAA,inactive: 0.304
22,AAAAGCTT,inactive: -0.00649
23,CAGTGATA,inactive: 0.0736
24,CATCCTCA,inactive: 0.0114
25,AATTCCAG,inactive: 0.0238

row,Sequence,PBM E-score
1,AATTTAAG,inactive: 0.0614
2,AGTGTCCA,inactive: 0.0872
3,CGACGCCA,≥ -0.107
4,AAAAGCGG,inactive: -0.177
5,CCGCGAAG,inactive: -0.228
6,AATTGTAG,inactive: 0.21
7,CTTTATGA,inactive: 0.0237
8,GAGAGTCC,inactive: -0.209
9,ACCTCGAT,inactive: -0.0401
10,AAGACAGG,inactive: 0.0947
11,CGACTAAA,inactive: 0.0743
12,AGCACAGG,inactive: -0.0841
13,TCACTAAA,inactive: 0.0581
14,ATCACGAA,inactive: 0.104
15,AAATAAAG,inactive: 0.0192
16,TCCGCGAA,≥ -0.0716
17,GACAGTTA,inactive: 0.054
18,AGATCACG,inactive: 0.0499
19,AGAACTGC,inactive: -0.0543
20,ACCTAGAC,inactive: 0.0342
21,CAGGTCCG,inactive: -0.117
22,AGCTTAGG,inactive: -0.036
23,CCGGTCCA,inactive: -0.155
24,CGGGGGAA,inactive: -0.26
25,AGTAGGAA,inactive: -0.0405

row,Sequence,PBM E-score
1,AGGTCCCA,inactive: -0.0895
2,CCAGGTGC,inactive: -0.123
3,AGTAGGTC,inactive: -0.0514
4,TACTCCTA,inactive: 0.0404
5,GGTGTGCA,inactive: -0.0729
6,CACGTTTA,inactive: 0.136
7,CTCACCTA,inactive: 0.0316
8,CTCCAAAC,inactive: 0.0426
9,CTAGTTCC,inactive: 0.0302
10,CCGTGAAG,inactive: -0.101
11,GTCATAGA,inactive: 0.089
12,ATTGGTGG,inactive: -0.0526
13,ACGTACAT,active: 0.337
14,GGGGTGAA,inactive: -0.164
15,GCAGTCCC,inactive: -0.194
16,CTTAATCC,inactive: -0.0587
17,CATCGGTA,inactive: 0.0702
18,GTTCTTAA,inactive: 0.0719
19,CTTTCTGC,inactive: -0.137
20,CTCGACCA,inactive: -0.116
21,CAGAATCA,inactive: 0.0559
22,GGTGCACC,inactive: -0.103
23,AACTATAG,inactive: 0.066
24,CCTAGTAA,inactive: 0.088
25,AATGTACA,active: 0.407

row,Sequence,PBM E-score
1,CATCATCC,inactive: 0.0524
2,GGCTACGA,inactive: -0.0105
3,ACGCAGTC,inactive: -0.108
4,AGGACCCA,inactive: -0.214
5,AATTGGAC,inactive: 0.0915
6,CCATGCGC,inactive: -0.129
7,CCGAGGCA,inactive: -0.104
8,CACGCCTC,inactive: -0.134
9,CCGTCTAC,inactive: -0.0405
10,CTTTCAAA,inactive: 0.0275
11,ATTGCTCG,inactive: -0.00915
12,ACCTGACT,inactive: 0.0678
13,AAACGGAT,inactive: 0.115
14,GCCGAATA,inactive: -0.00585
15,GCACTTAA,inactive: 0.107
16,TCTACGCA,inactive: 0.0509
17,AGAGTCGG,inactive: -0.0944
18,AGAAAAGA,inactive: 0.0025
19,CACCAATG,inactive: 0.0193
20,GAACTCGA,inactive: 0.00047
21,AACTTGCC,inactive: 0.0621
22,AACCCGTG,inactive: -0.08
23,CGAAGTTC,inactive: -0.0365
24,GGAATTCC,inactive: -0.046
25,GAACCCGC,inactive: -0.227

row,Sequence,PBM E-score
1,AACGAGGA,inactive: 0.0777
2,AGAGTTAA,inactive: 0.028
3,CGGTCGGC,inactive: -0.282
4,GCAACCGA,inactive: -0.072
5,GGATGTGA,inactive: 0.081
6,AATAGTGG,inactive: 0.149
7,TCTAAGCA,inactive: 0.0357
8,AAAAATCT,inactive: 0.0529
9,AGCCACAA,inactive: -0.0654
10,CAAAATCC,inactive: 0.0624
11,ATAACCAA,inactive: 0.143
12,ATAATCCC,inactive: -0.0206
13,AAGTCACG,inactive: 0.0154
14,GACCTCGC,inactive: -0.0912
15,AATGCACG,inactive: 0.0389
16,AGTTTAGC,inactive: -0.00647
17,CAGTTTAC,inactive: 0.105
18,CGTTTAAA,inactive: 0.0872
19,CCGATGGA,inactive: -0.103
20,GAAGACAC,inactive: 0.145
21,ATGCGTTA,inactive: 0.051
22,GCTTCTTA,inactive: -0.0551
23,GAATCGCA,inactive: 0.00506
24,CGTAGCGC,inactive: -0.13
25,AATAGCAA,≥ 0.161

row,Sequence,PBM E-score
1,CGTAGTAG,inactive: 0.0178
2,ATTTCGAG,inactive: -0.00649
3,ATACGGAG,inactive: -0.0658
4,AGGGGCAG,inactive: -0.113
5,ACCGATAC,inactive: 0.0733
6,ACAAGACA,active: ≥ 0.352
7,GGTAAGTA,inactive: 0.0705
8,GCCGTAGA,inactive: -0.039
9,ATTGGTAG,inactive: 0.0945
10,ATCCCGAC,inactive: -0.0204
11,AAAAGCAA,inactive: 0.0603
12,ATAATCTC,inactive: 0.0581
13,TGAAGCAA,inactive: 0.0246
14,CCTGACTA,≥ 0.103
15,AGAATTAG,inactive: 0.0574
16,ATGCCTAC,inactive: -0.0611
17,GTTTGTCA,inactive: 0.187
18,CATTTACG,inactive: 0.0663
19,CCGCGCTC,inactive: -0.23
20,AACCTGCT,inactive: -0.00443
21,AATCGAGA,inactive: -0.00416
22,ATCGTTAG,inactive: -0.0181
23,ATGCGAAC,inactive: 0.0459
24,GGTCTTTA,inactive: 0.0116
25,ATGGTCCC,inactive: -0.0982

row,Sequence,PBM E-score
1,CGGTACTC,inactive: -0.0267
2,ATATTTAA,inactive: 0.199
3,GACATTGC,inactive: 0.149
4,CACCTTTC,inactive: -0.108
5,AAGAGCGG,inactive: -0.141
6,AGAGCAAT,inactive: -0.00702
7,TCACCCGA,inactive: -0.075
8,CACATCAC,inactive: 0.0974
9,AAGAGGAC,inactive: -0.0369
10,CTAAGTAC,inactive: 0.0839
11,AAAAAGAC,inactive: -0.00775
12,AGCTGATA,inactive: 0.0965
13,TCAGACGA,inactive: 0.0794
14,ATCCTGTC,inactive: 0.137
15,AACATAGT,inactive: 0.287
16,ATAGCTCA,inactive: -0.0365
17,CACTAAGA,inactive: 0.0597
18,CGGGCCAA,inactive: -0.248
19,GCATAAAC,inactive: 0.0658
20,GCAGCGCC,inactive: -0.261
21,ACGTAGCT,inactive: 0.0358
22,TGCCCTAA,inactive: -0.103
23,AAGATAAC,inactive: 0.144
24,ACTTTTTA,inactive: 0.0843
25,CGGTGTCC,inactive: -0.0474

row,Sequence,PBM E-score
1,GCAACGCA,inactive: -0.109
2,CTGGGTGA,inactive: -0.112
3,GGCGTGTA,inactive: 0.281
4,ATCGTAAA,inactive: 0.0906
5,AGACATCG,inactive: 0.0873
6,ATCCTGAA,≥ 0.0685
7,ATGCCAAA,inactive: 0.0619
8,CGATTACA,inactive: 0.307
9,CGGTAAAC,inactive: -0.00339
10,AATGGCGC,inactive: -0.159
11,AAGGTGGA,inactive: -0.0864
12,ACCGGTAT,inactive: -0.0718
13,CGACTCAA,inactive: 0.0205
14,GTCCCCGA,inactive: -0.0571
15,CGACGTAA,inactive: 0.04
16,ACTGCTAT,inactive: 0.00752
17,CACAGCAA,inactive: 0.108
18,ACTCGGTC,inactive: -0.0373
19,TAGACTCA,inactive: -0.0429
20,ACACCAGC,inactive: 0.0328
21,ACGCTTAA,inactive: 0.0309
22,GCGCAAGC,inactive: -0.2
